The source of these data is paper PMC4336329 (PLoS ONE, 2015).

Out of some 310,000 compounds screened, about 2,200 (0.71%) showed an effect of 50% or more. The effect is printed as a negative number. The list shows a part of the results.

The target of this assay is human ether-à-go-go-related gene (hERG) potassium channel (human, UniProt Q12809). The assay is described as follows: primary screen, population patch clamp on CHO cells stably expressing hERG.
human ether-à-go-go-related gene (hERG) potassium channel, sequence (Q12809 whole entry, looked up): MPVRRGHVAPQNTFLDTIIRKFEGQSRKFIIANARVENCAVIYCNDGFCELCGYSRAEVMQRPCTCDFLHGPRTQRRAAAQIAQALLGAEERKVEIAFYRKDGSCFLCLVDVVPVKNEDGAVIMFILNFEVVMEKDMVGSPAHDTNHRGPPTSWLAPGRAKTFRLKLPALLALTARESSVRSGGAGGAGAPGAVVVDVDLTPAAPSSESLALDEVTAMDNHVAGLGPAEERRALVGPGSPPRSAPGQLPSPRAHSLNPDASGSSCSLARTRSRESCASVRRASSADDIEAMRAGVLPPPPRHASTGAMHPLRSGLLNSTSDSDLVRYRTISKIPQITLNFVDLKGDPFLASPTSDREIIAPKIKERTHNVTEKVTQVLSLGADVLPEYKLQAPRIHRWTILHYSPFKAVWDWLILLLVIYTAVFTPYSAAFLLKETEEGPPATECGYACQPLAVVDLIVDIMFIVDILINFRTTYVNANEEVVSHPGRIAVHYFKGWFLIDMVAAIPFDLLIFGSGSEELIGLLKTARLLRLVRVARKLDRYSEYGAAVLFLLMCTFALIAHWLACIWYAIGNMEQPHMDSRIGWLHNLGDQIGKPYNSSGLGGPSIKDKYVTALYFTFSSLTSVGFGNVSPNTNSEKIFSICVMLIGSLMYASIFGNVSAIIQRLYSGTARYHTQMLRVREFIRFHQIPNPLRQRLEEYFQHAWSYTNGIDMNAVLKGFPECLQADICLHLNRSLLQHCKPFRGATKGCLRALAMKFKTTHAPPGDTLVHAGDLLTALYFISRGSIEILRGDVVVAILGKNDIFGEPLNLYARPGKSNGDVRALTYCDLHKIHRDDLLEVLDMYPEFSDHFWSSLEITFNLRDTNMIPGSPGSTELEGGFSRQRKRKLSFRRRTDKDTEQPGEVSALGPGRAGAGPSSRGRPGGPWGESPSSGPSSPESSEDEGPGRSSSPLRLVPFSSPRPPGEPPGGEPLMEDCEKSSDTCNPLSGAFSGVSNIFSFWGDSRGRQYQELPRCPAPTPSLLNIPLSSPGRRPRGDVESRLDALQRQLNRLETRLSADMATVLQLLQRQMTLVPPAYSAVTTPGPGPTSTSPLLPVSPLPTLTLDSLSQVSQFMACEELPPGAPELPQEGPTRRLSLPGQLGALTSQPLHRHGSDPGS
As for `Cc1ccc(-c2nc(CNC(=O)c3ccco3)cs2)cc1`, the “hERG current change (%, negative = inhibition) at 1uM” value is given as 4.02%.

Take `Cc1cccc(C(=O)NCCc2csc(C)n2)c1`: the “hERG current change (%, negative = inhibition) at 1uM” value is 11.8%.

Take `CC1Oc2ccccc2OC1(O)c1ccccn1` (stereo not drawn): the “hERG current change (%, negative = inhibition) at 1uM” value was 7.58%.

For the compound `Cc1ccc(Cl)cc1OCC(=O)NCCOC(=O)Nc1sc(=S)n(C)c1C`, the “hERG current change (%, negative = inhibition) at 1uM” value is reported as 2.06%.

`CCOc1ccc(NC(=O)C2CCCN2S(=O)(=O)c2ccc3c(c2)C(C)(C)C(=O)N3C)cc1` (stereo not drawn): the “hERG current change (%, negative = inhibition) at 1uM” value is given as 2.55%.

`COc1cccc(-n2c(=O)c3ccccc3n3c(=S)[nH]nc23)c1`: the “hERG current change (%, negative = inhibition) at 1uM” value came out at 18%.

`CC(=O)c1cccc(NC(=O)N2CCCC2C(=O)Nc2c(C)cccc2C)c1` (stereo not drawn): the “hERG current change (%, negative = inhibition) at 1uM” value is listed as 10.1%.

As for `CC(C)C(=O)N1CCN(c2ccccc2NC(=O)COc2ccccc2)CC1`, the “hERG current change (%, negative = inhibition) at 1uM” value was -6.76%.

`c1ccc2c(c1)[nH]c1ccncc12`: the “hERG current change (%, negative = inhibition) at 1uM” value was determined as 3.65%.

Turning to `Cc1ccc(NC(=O)c2ccc(OC(=O)c3ccco3)cc2)cc1`, the “hERG current change (%, negative = inhibition) at 1uM” value is 14.1%.

In the case of `Cc1nc(SCC(=O)NCCc2ccccc2)nc(C)c1C`, the “hERG current change (%, negative = inhibition) at 1uM” value came out at 16.6%.

For the compound `O=[N+]([O-])c1ccccc1CN1CCN(S(=O)(=O)c2ccccc2)CC1`, the “hERG current change (%, negative = inhibition) at 1uM” value was determined as 7.59%.

For `O=C(Cc1cccs1)NCCc1csc(-c2ccccc2)n1`, the “hERG current change (%, negative = inhibition) at 1uM” value is -3.13%.

Regarding `CCOC(=O)c1c(O)c(Cl)c(C)[nH]c1=O`, the “hERG current change (%, negative = inhibition) at 1uM” value was 16.3%.

Turning to `COc1ccc(-c2nc(CN3CCCCC3c3cccnc3)c(C)o2)c(F)c1` (stereo not drawn), the “hERG current change (%, negative = inhibition) at 1uM” value is given as -12.2%.

`CCC(=O)Nc1ccc(N2CCN(Cc3ccccc3)CC2)cc1`: the “hERG current change (%, negative = inhibition) at 1uM” value is reported as -0.42%.

In the case of `CCC(=O)c1ccc(OCC(O)CN2CCc3ccccc3C2)cc1.Cl` (stereo not drawn), the “hERG current change (%, negative = inhibition) at 1uM” value is listed as -40.6%.

Consider `COc1ccc(N2CCN(C(=O)COc3ncnc4ccccc34)CC2)cc1`, for which the “hERG current change (%, negative = inhibition) at 1uM” value amounted to 3.13%.

With `O=C(CN1C(=O)NC2(CCCC2)C1=O)Nc1ccccc1F`, the “hERG current change (%, negative = inhibition) at 1uM” value was -6.53%.

Turning to `CC1SC(=NC(=O)C(C)N2C(=O)c3ccccc3C2=O)NC1=O` (stereo not drawn), the “hERG current change (%, negative = inhibition) at 1uM” value was 13.4%.

On to `O=C(c1ccc(CS(=O)Cc2ccc(Cl)cc2)o1)N1CCN(c2ccccn2)CC1` (stereo not drawn), for which the “hERG current change (%, negative = inhibition) at 1uM” value was -6.98%.

As to `Cc1nn(Cc2ccc(Cl)cc2)c(C)c1NC(=O)CCCn1nc(C)c([N+](=O)[O-])c1C`, the “hERG current change (%, negative = inhibition) at 1uM” value was -27.5%.

In the case of `COC(=O)c1ccc([C@H](NC(=O)c2ccco2)[C@]2(C)C[C@H]2C2CCCCC2)cc1`, the “hERG current change (%, negative = inhibition) at 1uM” value came out at 11.6%.

For `O=C(O)Cc1ccc(OCc2ccc(Cl)nc2)cc1`, the “hERG current change (%, negative = inhibition) at 1uM” value is 17.6%.

With `CCC/C(=N/NC(=O)c1cccc(Cl)c1)c1ccccc1`, the “hERG current change (%, negative = inhibition) at 1uM” value amounted to 9.19%.

Consider `Cc1ccc2cc(C3CC(c4ccco4)=NN3C(=O)CCC(=O)O)c(Cl)nc2c1` (stereo not drawn), for which the “hERG current change (%, negative = inhibition) at 1uM” value is given as -0.0403%.

On to `O=C(Nc1cccc(-c2csc(Nc3ccc(Cl)cc3)n2)c1)c1cc([N+](=O)[O-])cc(C(F)(F)F)c1`, for which the “hERG current change (%, negative = inhibition) at 1uM” value amounted to 12.6%.

For `COc1ccc(C2=NOC(C(=O)NCc3ccccn3)C2)cc1` (stereo not drawn), the “hERG current change (%, negative = inhibition) at 1uM” value came out at 15.2%.

Consider `Cn1c(=O)c(N=O)c(N)n(Cc2ccccc2)c1=S`, for which the “hERG current change (%, negative = inhibition) at 1uM” value is reported as 6.13%.

As to `CC(=O)c1ccc(C(C)(C)c2ccc(C(C)=O)s2)s1`, the “hERG current change (%, negative = inhibition) at 1uM” value is 7.15%.

Turning to `CCOc1ccc(CN2C(=O)c3ccccc3C2C(=O)NCc2cccnc2)cc1` (stereo not drawn), the “hERG current change (%, negative = inhibition) at 1uM” value is reported as -3.35%.

With `COc1ccc(C(=O)Nc2ccc(C3=NNC(=O)CC3C)cc2NC(=O)c2ccc(OC)cc2)cc1` (stereo not drawn), the “hERG current change (%, negative = inhibition) at 1uM” value was determined as 8%.

`CCCc1nc(-c2cc3ccccc3[nH]c2=O)no1`: the “hERG current change (%, negative = inhibition) at 1uM” value was 15.6%.

Consider `Nc1ccc(N2CCCCC2)cc1N1CCCCC1`, for which the “hERG current change (%, negative = inhibition) at 1uM” value is given as 8.38%.

For the compound `Cc1cc([N+](=O)[O-])cc2c1NCC1CC=CC21` (stereo not drawn), the “hERG current change (%, negative = inhibition) at 1uM” value is listed as -3.07%.

On to `O=C(Nc1ccccc1F)N1CCc2ccccc2C1`, for which the “hERG current change (%, negative = inhibition) at 1uM” value is recorded as 18%.

Consider `Cc1cc(C)cc(-n2ncc3c2CCCC3NC(=O)CN2CCCC2=O)c1` (stereo not drawn), for which the “hERG current change (%, negative = inhibition) at 1uM” value was determined as 17.3%.

`CC(=O)N1c2ccc(S(=O)(=O)N(C)CC(=O)NC(C)c3ccccc3)cc2CC1C` (stereo not drawn): the “hERG current change (%, negative = inhibition) at 1uM” value worked out at 7.71%.

For `COc1cccc(OCCNc2cc(Cl)ccc2[N+](=O)[O-])c1`, the “hERG current change (%, negative = inhibition) at 1uM” value came out at 18.1%.

Regarding `CCOC(=O)Cc1csc(SCC(=O)N(CC(C)C)c2c(N)n(Cc3ccccc3)c(=O)[nH]c2=O)n1`, the “hERG current change (%, negative = inhibition) at 1uM” value is recorded as 7.33%.

As to `N#CC1(NC(=O)COC(=O)c2ccc(Cl)nc2)CCCCC1`, the “hERG current change (%, negative = inhibition) at 1uM” value stood at 17.7%.

Take `CC(=O)c1cc2c(cc1N)OCO2`: the “hERG current change (%, negative = inhibition) at 1uM” value was 5.27%.

Consider `COc1ccc(N2CC(C)(C)C2=O)cc1`, for which the “hERG current change (%, negative = inhibition) at 1uM” value is 19.4%.

As to `CCO[C@@H]1OC(C(=O)N2CCN(Cc3ccccc3)CC2)=C[C@H](c2ccc(C(F)(F)F)cc2)[C@H]1CCCO`, the “hERG current change (%, negative = inhibition) at 1uM” value was found to be 12.7%.

On to `O=C(CSc1nnc(CNC(=O)c2cccs2)o1)NC1CCCCC1`, for which the “hERG current change (%, negative = inhibition) at 1uM” value is given as -12.7%.
